Measurements reported in publication PMC5017906.
Results are given in words; binding and its absence hold for the method and conditions named. In cells and extracts the contact can be indirect. Some binding calls cover weakened binding; strength is not graded here. Where a sequence is shown, tags or fusion partners need not be part of it.

Amino acid sequences for entries named in this document (tags omitted). A change or cut given only in a name is not applied to a line headed by its entry. Residues count along the entry.
UniProt P42262, residues 25-883: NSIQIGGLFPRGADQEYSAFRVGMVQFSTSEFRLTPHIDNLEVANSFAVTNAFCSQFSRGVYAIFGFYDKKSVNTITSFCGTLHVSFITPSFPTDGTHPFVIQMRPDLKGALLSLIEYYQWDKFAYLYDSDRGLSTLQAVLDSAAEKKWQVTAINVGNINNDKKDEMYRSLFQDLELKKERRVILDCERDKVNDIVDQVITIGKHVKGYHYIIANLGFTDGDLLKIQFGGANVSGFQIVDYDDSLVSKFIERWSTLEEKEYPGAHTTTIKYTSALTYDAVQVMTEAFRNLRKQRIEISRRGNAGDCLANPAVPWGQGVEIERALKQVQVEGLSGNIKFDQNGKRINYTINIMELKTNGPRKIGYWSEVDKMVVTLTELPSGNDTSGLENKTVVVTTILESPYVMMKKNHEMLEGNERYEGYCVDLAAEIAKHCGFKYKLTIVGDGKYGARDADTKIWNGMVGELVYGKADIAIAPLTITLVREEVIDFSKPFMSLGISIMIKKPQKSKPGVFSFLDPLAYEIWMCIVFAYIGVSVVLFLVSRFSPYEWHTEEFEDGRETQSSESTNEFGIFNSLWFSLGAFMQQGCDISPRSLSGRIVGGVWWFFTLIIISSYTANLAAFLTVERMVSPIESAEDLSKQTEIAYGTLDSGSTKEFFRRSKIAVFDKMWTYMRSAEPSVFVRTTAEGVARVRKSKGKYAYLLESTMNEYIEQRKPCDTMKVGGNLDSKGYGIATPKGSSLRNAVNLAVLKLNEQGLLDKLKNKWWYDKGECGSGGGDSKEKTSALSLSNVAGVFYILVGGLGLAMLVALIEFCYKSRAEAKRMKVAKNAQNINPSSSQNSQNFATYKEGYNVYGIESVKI
UniProt P32297, residues 32-505: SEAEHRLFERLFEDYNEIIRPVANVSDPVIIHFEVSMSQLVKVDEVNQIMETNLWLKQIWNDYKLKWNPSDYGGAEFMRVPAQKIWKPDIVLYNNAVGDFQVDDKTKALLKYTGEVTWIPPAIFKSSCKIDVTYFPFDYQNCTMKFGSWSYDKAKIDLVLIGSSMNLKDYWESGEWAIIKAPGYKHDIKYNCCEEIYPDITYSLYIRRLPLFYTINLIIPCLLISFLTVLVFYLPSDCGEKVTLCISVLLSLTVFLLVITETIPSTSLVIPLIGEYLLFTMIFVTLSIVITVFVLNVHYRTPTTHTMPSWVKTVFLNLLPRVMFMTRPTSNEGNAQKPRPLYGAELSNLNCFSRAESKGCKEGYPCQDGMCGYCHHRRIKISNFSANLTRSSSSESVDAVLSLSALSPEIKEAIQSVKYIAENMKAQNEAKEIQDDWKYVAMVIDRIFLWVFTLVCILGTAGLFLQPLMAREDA
UniProt P43681, residues 27-627: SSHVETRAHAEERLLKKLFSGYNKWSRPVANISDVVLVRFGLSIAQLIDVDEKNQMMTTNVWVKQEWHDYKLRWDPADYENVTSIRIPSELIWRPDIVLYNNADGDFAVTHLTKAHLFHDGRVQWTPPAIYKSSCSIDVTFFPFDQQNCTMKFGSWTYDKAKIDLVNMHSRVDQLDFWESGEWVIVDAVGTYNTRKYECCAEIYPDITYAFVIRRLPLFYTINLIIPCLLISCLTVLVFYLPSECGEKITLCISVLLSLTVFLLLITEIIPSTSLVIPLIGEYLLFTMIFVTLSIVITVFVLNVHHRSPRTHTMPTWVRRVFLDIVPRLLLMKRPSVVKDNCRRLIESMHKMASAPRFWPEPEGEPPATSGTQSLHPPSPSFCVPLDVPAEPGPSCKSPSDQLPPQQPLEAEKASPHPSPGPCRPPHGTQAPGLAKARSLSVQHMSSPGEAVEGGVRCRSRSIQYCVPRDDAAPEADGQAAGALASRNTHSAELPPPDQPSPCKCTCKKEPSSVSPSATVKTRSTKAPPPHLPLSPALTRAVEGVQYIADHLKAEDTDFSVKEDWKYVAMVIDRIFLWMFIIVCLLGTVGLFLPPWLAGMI
UniProt P30532, residues 23-468: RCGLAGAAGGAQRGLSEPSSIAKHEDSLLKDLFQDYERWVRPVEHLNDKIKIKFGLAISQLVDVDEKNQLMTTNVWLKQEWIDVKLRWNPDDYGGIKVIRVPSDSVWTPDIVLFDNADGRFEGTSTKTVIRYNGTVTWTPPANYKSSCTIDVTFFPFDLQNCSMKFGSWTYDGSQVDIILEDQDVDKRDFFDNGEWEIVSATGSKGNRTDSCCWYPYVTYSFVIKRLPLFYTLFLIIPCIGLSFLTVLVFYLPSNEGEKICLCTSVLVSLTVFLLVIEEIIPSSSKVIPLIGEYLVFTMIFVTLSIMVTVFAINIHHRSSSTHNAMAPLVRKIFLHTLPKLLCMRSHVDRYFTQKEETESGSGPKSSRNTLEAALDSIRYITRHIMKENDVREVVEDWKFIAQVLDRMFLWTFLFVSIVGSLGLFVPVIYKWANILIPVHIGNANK
UniProt Q15825, residues 26-494: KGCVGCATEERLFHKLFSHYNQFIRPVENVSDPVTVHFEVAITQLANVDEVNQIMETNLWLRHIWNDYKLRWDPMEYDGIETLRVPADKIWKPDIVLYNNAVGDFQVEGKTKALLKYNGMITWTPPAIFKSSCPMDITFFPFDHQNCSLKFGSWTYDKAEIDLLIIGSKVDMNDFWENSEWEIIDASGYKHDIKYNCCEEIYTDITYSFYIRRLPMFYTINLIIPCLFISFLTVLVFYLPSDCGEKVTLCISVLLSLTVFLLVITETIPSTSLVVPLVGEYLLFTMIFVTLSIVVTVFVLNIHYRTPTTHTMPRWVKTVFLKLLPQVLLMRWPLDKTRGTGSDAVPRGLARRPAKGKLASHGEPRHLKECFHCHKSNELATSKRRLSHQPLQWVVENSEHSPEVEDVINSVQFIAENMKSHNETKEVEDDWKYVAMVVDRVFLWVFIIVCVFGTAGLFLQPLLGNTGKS
UniProt P36544, residues 23-502: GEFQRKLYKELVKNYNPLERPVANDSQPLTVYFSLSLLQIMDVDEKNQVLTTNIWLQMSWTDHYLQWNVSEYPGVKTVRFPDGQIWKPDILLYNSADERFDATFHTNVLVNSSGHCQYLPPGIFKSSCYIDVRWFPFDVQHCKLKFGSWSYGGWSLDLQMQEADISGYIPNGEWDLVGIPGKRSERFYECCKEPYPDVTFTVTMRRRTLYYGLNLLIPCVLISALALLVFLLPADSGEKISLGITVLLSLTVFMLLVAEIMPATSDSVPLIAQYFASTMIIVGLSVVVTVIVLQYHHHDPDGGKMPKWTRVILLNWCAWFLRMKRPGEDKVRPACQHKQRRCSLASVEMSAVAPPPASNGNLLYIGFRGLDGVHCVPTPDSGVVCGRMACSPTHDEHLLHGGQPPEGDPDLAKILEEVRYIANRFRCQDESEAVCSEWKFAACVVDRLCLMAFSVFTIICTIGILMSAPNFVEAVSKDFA
UniProt P49582, residues 23-502: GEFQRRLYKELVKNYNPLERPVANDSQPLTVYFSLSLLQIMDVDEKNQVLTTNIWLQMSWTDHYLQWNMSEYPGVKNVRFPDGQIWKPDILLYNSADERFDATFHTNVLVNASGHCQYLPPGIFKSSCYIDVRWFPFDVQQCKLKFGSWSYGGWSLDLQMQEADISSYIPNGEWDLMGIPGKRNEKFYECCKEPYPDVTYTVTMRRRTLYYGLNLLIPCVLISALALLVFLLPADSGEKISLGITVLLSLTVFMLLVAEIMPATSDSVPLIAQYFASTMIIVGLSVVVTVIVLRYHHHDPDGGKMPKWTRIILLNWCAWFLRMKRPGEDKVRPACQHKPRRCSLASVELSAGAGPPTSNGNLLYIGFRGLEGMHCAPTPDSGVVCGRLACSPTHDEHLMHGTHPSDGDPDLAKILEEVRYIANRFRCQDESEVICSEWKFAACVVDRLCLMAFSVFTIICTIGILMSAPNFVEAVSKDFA
UniProt P17787, residues 26-502: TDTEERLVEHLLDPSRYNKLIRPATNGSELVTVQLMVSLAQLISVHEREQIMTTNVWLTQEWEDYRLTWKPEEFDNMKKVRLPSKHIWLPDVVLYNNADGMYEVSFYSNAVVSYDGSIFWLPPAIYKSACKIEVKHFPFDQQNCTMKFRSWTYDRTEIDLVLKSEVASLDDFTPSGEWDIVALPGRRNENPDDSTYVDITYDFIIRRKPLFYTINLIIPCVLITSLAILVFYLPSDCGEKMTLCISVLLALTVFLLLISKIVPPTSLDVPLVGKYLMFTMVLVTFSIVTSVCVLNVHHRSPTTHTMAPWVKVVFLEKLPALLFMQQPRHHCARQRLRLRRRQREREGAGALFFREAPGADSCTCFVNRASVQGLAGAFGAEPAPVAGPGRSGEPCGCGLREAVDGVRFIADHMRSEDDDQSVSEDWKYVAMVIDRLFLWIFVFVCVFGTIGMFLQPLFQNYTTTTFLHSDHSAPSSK
UniProt Q9ERK7: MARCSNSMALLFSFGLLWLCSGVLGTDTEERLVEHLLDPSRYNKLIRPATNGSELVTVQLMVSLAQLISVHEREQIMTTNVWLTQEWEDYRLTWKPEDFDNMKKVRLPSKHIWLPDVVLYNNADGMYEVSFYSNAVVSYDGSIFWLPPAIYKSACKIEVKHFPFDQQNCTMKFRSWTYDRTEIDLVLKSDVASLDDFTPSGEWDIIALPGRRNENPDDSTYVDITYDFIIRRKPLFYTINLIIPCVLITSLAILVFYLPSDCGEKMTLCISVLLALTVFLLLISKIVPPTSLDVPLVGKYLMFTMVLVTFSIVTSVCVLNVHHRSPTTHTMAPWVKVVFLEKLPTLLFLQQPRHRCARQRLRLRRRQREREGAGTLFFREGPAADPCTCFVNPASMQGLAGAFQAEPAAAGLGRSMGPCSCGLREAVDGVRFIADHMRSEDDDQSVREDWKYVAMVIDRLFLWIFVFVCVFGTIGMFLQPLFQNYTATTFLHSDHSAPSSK
UniProt P30926, residues 22-498: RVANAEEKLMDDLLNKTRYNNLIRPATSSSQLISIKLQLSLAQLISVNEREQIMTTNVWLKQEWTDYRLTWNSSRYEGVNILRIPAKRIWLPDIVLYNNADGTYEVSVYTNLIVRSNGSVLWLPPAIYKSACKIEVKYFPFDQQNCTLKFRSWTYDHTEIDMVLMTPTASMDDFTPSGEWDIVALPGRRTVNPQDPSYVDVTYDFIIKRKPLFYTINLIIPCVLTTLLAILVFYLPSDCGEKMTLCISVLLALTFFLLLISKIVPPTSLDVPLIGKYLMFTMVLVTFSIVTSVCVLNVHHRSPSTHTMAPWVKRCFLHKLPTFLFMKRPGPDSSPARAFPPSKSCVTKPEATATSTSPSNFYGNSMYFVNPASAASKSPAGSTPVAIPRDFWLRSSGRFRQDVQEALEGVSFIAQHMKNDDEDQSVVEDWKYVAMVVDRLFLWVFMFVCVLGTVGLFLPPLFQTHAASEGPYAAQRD
UniProt Q8R493, residues 21-495: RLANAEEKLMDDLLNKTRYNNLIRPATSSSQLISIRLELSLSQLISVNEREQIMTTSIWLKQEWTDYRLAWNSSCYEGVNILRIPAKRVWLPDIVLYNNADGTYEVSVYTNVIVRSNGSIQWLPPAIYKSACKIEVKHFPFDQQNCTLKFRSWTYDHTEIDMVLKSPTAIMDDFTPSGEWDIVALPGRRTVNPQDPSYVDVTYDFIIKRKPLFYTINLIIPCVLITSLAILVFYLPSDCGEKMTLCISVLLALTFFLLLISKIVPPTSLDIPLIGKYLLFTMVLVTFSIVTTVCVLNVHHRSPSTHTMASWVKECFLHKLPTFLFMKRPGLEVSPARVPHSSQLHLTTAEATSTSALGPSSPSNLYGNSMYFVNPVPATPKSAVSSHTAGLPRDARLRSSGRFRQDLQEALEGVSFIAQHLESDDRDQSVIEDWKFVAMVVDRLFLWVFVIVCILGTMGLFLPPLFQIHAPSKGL

How the values were obtained:
[1] = biological target: T1, Recombinant human GST-tagged Lypd6 (LY6/PLAUR domain-containing 6) (human) (UniProt Q86Y78); test: pull-down; recombinant human GST-Lypd6 covalently coupled to NHS magnetic beads as bait; 700-1000 μg protein of 2% Triton X-100 extract of human temporal cortex membranes, 18-22 h at 4°C in lysis buffer (50 mM Tris, 50 mM NaCl, 5 mM EDTA, 5 mM EGTA, pH 7.5); washes with 1 M NaCl and 0.1 M NaCl, 0.5% Triton X-100; western blot; non-coupled beads as control; only the target purified
T1 sequence: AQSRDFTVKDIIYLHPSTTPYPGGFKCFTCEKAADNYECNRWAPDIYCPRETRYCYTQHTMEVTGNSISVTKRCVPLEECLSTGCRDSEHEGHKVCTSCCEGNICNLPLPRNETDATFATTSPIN

[2] = biological target: T1, Recombinant human GST-tagged Lypd6 (LY6/PLAUR domain-containing 6) (human); test: pull-down; only the target purified
[3] = biological target: T1, Recombinant human GST-tagged Lypd6 (LY6/PLAUR domain-containing 6) (human); test: pull-down; human recombinant Lypd6-coupled beads on cortical tissue of wild-type and α7, β2 or β4 knockout mice; western blot (Fig. S3); only the target purified

Substance	binding [1]	binding [2]	binding [3]
GluR2 AMPA receptor subunit (human temporal cortex) (from UniProt P42262 25-883)	no binding		
α3 nAChR subunit (human temporal cortex) (from UniProt P32297 32-505) (receptor)	binds	binds	
α4 nAChR subunit (human temporal cortex) (from UniProt P43681 27-627) (receptor)	binds	binds	
α5 nAChR subunit (human temporal cortex) (from UniProt P30532 23-468) (receptor)	binds	binds	
α6 nAChR subunit (human temporal cortex) (from UniProt Q15825 26-494) (receptor)	binds	binds	
α7 nAChR subunit (human temporal cortex) (from UniProt P36544 23-502) (receptor)	binds		
α7 nAChR subunit (mouse cortical tissue) (from UniProt P49582 23-502) (receptor)			binds
β2 nAChR subunit (human temporal cortex) (from UniProt P17787 26-502) (receptor)	binds	binds	
β2 nAChR subunit (mouse cortical tissue) (from UniProt Q9ERK7 26-501) (receptor)			binds
β4 nAChR subunit (human temporal cortex) (from UniProt P30926 22-498) (receptor)	binds	binds	
β4 nAChR subunit (mouse cortical tissue) (from UniProt Q8R493 21-495) (receptor)			binds
